Data published in the supplement of paper PMC9446081.
Out of some 39,000 compounds screened, about 220 (0.56%) showed activity. This is one part of the list.

system: Escherichia coli K-12 BW25113; assay: relative growth (OD600 normalised to plate interquartile mean) (fraction); higher = less growth inhibition, active = 0.2 or less; conditions: 50 µM; LB; incubation time: overnight (16-24 h)
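Further: static incubation at 37 °C against the wild-type strain, values averaged over two biological replicates.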

Row | Structure (SMILES) | relative growth
1 | N#CCC(=O)N1CCCCC1 | inactive: 0.992
2 | COc1ccc(S(=O)(=O)Nc2cccc3c2O[C@H](CN(C)S(=O)(=O)c2cccs2)[C@@H](C)CN([C@@H](C)CO)C3=O)cc1 | inactive: 1
3 | CCCNC(=O)N1C[C@@H](C)[C@@H](OC)CN(C)C(=O)c2ccc(NS(=O)(=O)CC(F)(F)F)cc2OC[C@H]1C | inactive: 0.985
4 | Cc1ccc(S(=O)(=O)Nc2ccc3c(c2)C(=O)N(C)[C@H]2CC[C@H](CC(=O)NCCc4ccncc4)O[C@H]2CO3)cc1 | inactive: 1
5 | COc1cccc(S(=O)(=O)N2C[C@@H](O)COC[C@@H]3O[C@@H](CC(=O)N4CCN(c5ccccc5)CC4)CC[C@H]32)c1 | inactive: 0.977
6 | Cc1ncc[nH]1 | inactive: 1.03
7 | C[C@H](CO)N1C[C@H](C)[C@@H](CN(C)S(C)(=O)=O)Oc2cc(-c3ccccc3F)ccc2S1(=O)=O | inactive: 0.983
8 | C[C@H]1CN([C@@H](C)CO)C(=O)CCCn2cc(nn2)CO[C@@H]1CN(C)C(=O)Nc1cccc(C(F)(F)F)c1 | inactive: 0.984
9 | NCCCCCCNC(=O)[C@@H]1C[C@@H]2C(=O)N3CCC[C@H]3C(=O)N2[C@@H]1c1cccc(OCCO)c1 | inactive: 0.999
10 | Cc1ccc(N(c2ccc(C)cc2)c2cccnc2)cc1 | inactive: 1.02
11 | COc1ccc(CN(C)C[C@@H]2OCCCC[C@@H](C)Oc3ccc(NS(=O)(=O)c4ccccc4)cc3C(=O)N([C@@H](C)CO)C[C@H]2C)cc1 | inactive: 0.967
12 | COc1ccc(NC(=O)Nc2ccc3c(c2)C(=O)N([C@H](C)CO)C[C@H](C)[C@@H](CN(C)C(=O)Nc2ccc4c(c2)OCO4)OCCCC[C@H](C)O3)cc1 | inactive: 1.02
13 | C[C@@H]1CN([C@@H](C)CO)C(=O)c2cc(NC(=O)C3CC3)ccc2O[C@H]1CN(C)Cc1ccc(C(=O)O)cc1 | inactive: 0.965
14 | C[C@@H]1CCCCO[C@@H](CN(C)C(=O)C2CCCCC2)[C@H](C)CN([C@H](C)CO)C(=O)c2cc(NC(=O)C3CCCCC3)ccc2O1 | inactive: 0.976
15 | Cc1noc(C)c1NC(=O)N(C)C[C@H]1OCCCC[C@@H](C)Oc2ccc(NC(=O)c3ccccc3)cc2C(=O)N([C@@H](C)CO)C[C@H]1C | inactive: 0.997
16 | COC(=O)CCCCC(=O)c1[nH]c(=O)[nH]c1C | inactive: 1.03
17 | C[C@H](CO)N1C[C@H](C)[C@H](CN(C)S(=O)(=O)c2ccccc2)Oc2ncc(-c3ccncc3)cc2C1=O | inactive: 0.967
18 | COc1ccc(CN(C)C[C@H]2OCCCC[C@H](C)Oc3ccc(NS(=O)(=O)c4cccs4)cc3C(=O)N([C@@H](C)CO)C[C@@H]2C)cc1 | inactive: 1
19 | C[C@H](CO)N1C[C@H](C)[C@H](CN(C)Cc2ccc(-c3ccccc3)cc2)Oc2ccc(NC(=O)Cc3ccccc3)cc2C1=O | inactive: 1.02
20 | COc1ccc(NC(=O)N(C)C[C@@H]2Oc3ncc(C#C[C@@H](C)O)cc3C(=O)N([C@@H](C)CO)C[C@H]2C)cc1 | inactive: 1
21 | CC1=CC(C)(C)N(C(=O)/C=C/c2ccccc2)c2ccc(C)cc21 | inactive: 1.06
22 | CC(C)NC(=O)N(C)C[C@H]1Oc2ccc(NC(=O)Cn3cnnn3)cc2C(=O)N([C@H](C)CO)C[C@@H]1C | inactive: 0.982

Row | Structure (SMILES) | relative growth
23 | Cc1noc(N)c1C(=O)O | inactive: 1.01
24 | C[C@@H]1CN([C@H](C)CO)S(=O)(=O)c2ccc(C#CC(C)(C)O)cc2O[C@H]1CN(C)C(=O)C1CCCCC1 | inactive: 0.986
25 | C[C@@H]1CN([C@H](C)CO)C(=O)c2cc(C#CC3(O)CCCC3)cnc2O[C@H]1CN(C)C(=O)CN(C)C | inactive: 1.01
26 | Cc1ccc(Nc2nc3ccccc3s2)cc1Cl | inactive: 0.989
27 | C[C@@H]1CN([C@H](C)CO)C(=O)c2cc(NS(=O)(=O)c3ccc(Cl)cc3)ccc2O[C@@H]1CN(C)Cc1ccc(C(=O)Nc2ccccc2N)cc1 | inactive: 0.999
28 | O=C(O)CSCC(=O)N[C@H]1CCSC1=O | inactive: 0.997
29 | C[C@@H]1CN([C@@H](C)CO)C(=O)Cc2cc(NC(=O)CCN3CCOCC3)ccc2O[C@@H]1CN(C)S(=O)(=O)c1ccc(Cl)cc1 | inactive: 1.01
30 | C[C@@H]1CCCCO[C@H](CN(C)Cc2ccc(Cl)c(Cl)c2)[C@H](C)CN([C@@H](C)CO)C(=O)c2cc(NS(=O)(=O)c3ccc(F)cc3)ccc2O1 | inactive: 0.99
31 | Cc1ccc(F)cc1NC(=O)CN | inactive: 0.987
32 | COc1ccc(CN(C)C[C@H]2OCCCC[C@@H](C)Oc3ccc(NC(=O)NC(C)C)cc3C(=O)N([C@H](C)CO)C[C@H]2C)cc1 | inactive: 1.02
33 | COc1ccc(-c2ccc3c(c2)O[C@@H](CN(C)CC2CCOCC2)[C@H](C)CN([C@H](C)CO)S3(=O)=O)cc1 | inactive: 1.01
34 | C[C@H](CO)N1C[C@H](C)[C@H](CN(C)C(=O)NC2CCCCC2)OCCCC[C@H](C)Oc2ccc(NC(=O)C3CCCCC3)cc2C1=O | inactive: 0.965
35 | O=C(CN1CCOCC1)N[C@@H]1CC[C@H](CCn2cc(C3CC3)nn2)O[C@H]1CO | inactive: 1
36 | C[C@H]1CN([C@@H](C)CO)C(=O)c2cccc(NS(=O)(=O)c3cccs3)c2O[C@@H]1CN(C)Cc1ccncc1 | inactive: 1.01
37 | CN1CCO[C@H]2CCN(C(=O)c3ccn(C)n3)C[C@H]21 | inactive: 1.01
38 | Cc1ccc(S(=O)(=O)Nc2ccc3c(c2)CC(=O)N([C@@H](C)CO)C[C@H](C)[C@@H](CN(C)C(=O)NC(C)C)O3)cc1 | inactive: 0.976
39 | C[C@@H]1CCCCO[C@@H](CN(C)S(=O)(=O)c2cccs2)[C@H](C)CN([C@@H](C)CO)C(=O)c2cc(NC(=O)Cc3ccccc3)ccc2O1 | inactive: 1.03
40 | C[C@@H](NC(=O)C[C@@H]1CC[C@H](NC(=O)CN2CCOCC2)[C@@H](CO)O1)c1ccccc1 | inactive: 0.991
41 | C[C@@H]1CN([C@@H](C)CO)C(=O)c2cc(NC(=O)Nc3ccccc3)ccc2O[C@@H](C)CCCCO[C@H]1CN(C)C(=O)c1ccccc1 | inactive: 1.05
42 | C[C@@H]1CN([C@H](C)CO)C(=O)c2cccc(NC(=O)Nc3ccc(C(F)(F)F)cc3)c2O[C@H]1CN(C)C(=O)Nc1cccc2ccccc12 | inactive: 0.758
43 | CC(=O)N1CCNCC1 | inactive: 0.984
44 | COc1cccc(-c2ccc3c(c2)O[C@@H](CN(C)C(=O)C2CC2)[C@H](C)CN([C@H](C)CO)S3(=O)=O)c1 | inactive: 1

Row | Structure (SMILES) | relative growth
45 | O=c1nc2[nH][nH]cc-2c(=O)[nH]1 | inactive: 1
46 | C[C@H]1CN([C@@H](C)CO)C(=O)Cc2cc(NC(=O)Cc3ccccc3)ccc2O[C@@H]1CN(C)Cc1ccc(Oc2ccccc2)cc1 | inactive: 0.992
47 | O=C1O[C@H](c2ccccc2)[C@H](c2ccccc2)N2[C@H]1[C@@H](C(=O)O)[C@]1(C(=O)Nc3ccc(C#CC4=CCCCC4)cc31)[C@H]2c1ccccc1OCCO | inactive: 0.969
48 | COc1ccc(/C=C/CN2CCC(C(=O)N[C@@H](c3ccc(F)cc3)c3ccc4ccccc4n3)CC2)cc1 | inactive: 1.01
49 | COc1ccc(NC(=O)N(C)C[C@@H]2OCCCC[C@@H](C)Oc3ccc(NS(=O)(=O)c4ccc(OC)cc4)cc3C(=O)N([C@H](C)CO)C[C@@H]2C)cc1 | inactive: 0.981
50 | COc1ccc(NC(=O)Nc2ccc3c(c2)C(=O)N([C@@H](C)CO)C[C@@H](C)[C@H](CN(C)C(=O)Nc2ccc(F)cc2)OCCCC[C@H](C)O3)cc1 | inactive: 1.04
51 | COc1ccc(CCNC(=O)[C@@]2(Sc3ccc(C)cc3)CC(=O)N(Cc3ccccc3C(F)(F)F)[C@@H]2c2ccc(CO)cc2)cc1 | inactive: 0.987
52 | C[C@H](CO)N1C[C@H](C)[C@@H](CN(C)S(=O)(=O)c2ccccc2)Oc2cc(Br)ccc2S1(=O)=O | inactive: 1.03
53 | C[C@@H]1CN([C@H](C)CO)C(=O)CCCn2nncc2CO[C@@H]1CN(C)C(=O)Nc1ccc(N2CCCCC2)cc1 | inactive: 1.03
54 | C[C@@H]1CN([C@@H](C)CO)C(=O)c2cc(NS(=O)(=O)c3cn(C)cn3)ccc2O[C@@H](C)CCCCO[C@@H]1CN(C)C | inactive: 0.955
55 | NC(CO)(CO)CO | inactive: 1.12
56 | COc1ccc([Si](C)(C)[C@H]2[C@H](CCO)O[C@@]3(C(=O)N(Cc4cccc(N(C=O)c5ccccc5)c4)c4ccccc43)[C@@H]2C)cc1 | inactive: 1.04
57 | Cc1ccc(S(=O)(=O)Nc2ccc3c(c2)C(=O)N([C@@H](C)CO)C[C@@H](C)[C@@H](CN(C)S(=O)(=O)c2cn(C)cn2)O3)cc1 | inactive: 1.01
58 | C[C@@H]1CN([C@@H](C)CO)C(=O)c2cc(NC(=O)Nc3cccc4ccccc34)ccc2O[C@@H]1CN(C)Cc1ccncc1 | inactive: 0.951
59 | Cc1ccc(S(=O)(=O)N(C)C[C@H]2Oc3ccc(NS(=O)(=O)c4ccc(F)cc4)cc3C(=O)N([C@H](C)CO)C[C@H]2C)cc1 | inactive: 1.03
60 | C=CC[C@H](CC(=O)NCCO)C(=O)N[C@@H](COC(=O)[C@H](CC=C)CC(=O)OC(C)(C)C)Cc1ccccc1 | inactive: 0.989
61 | C[C@H]1CCCCO[C@H](CN(C)C)[C@@H](C)CN([C@@H](C)CO)C(=O)c2cc(NC(=O)Nc3cccc4ccccc34)ccc2O1 | inactive: 0.96
62 | COc1ccc(S(=O)(=O)N(C)C[C@@H]2Oc3ccc(NC(=O)c4ccncc4)cc3C(=O)N([C@@H](C)CO)C[C@H]2C)cc1 | inactive: 1
63 | COc1ccc2c(c1)OCc1c-2oc2cc(OC)ccc12 | inactive: 0.93
64 | C[C@H]1CN([C@@H](C)CO)C(=O)c2cc(NC(=O)CCCCCC(=O)Nc3ccccc3N)ccc2O[C@@H]1CN(C)CC1CCCCC1 | inactive: 0.969
